# Results from the supplement of paper PMC10681739.
# ± gives the standard deviation of the averaged measurements. Over roughly 4,000 sequences, “arbitrary fluorescence units” has its median near 830; the highest 2% begin near 6,500. This part holds few or none of the hits.
# Biological target: RUNX1 (UniProt Q01196)
# Assay: RUNX1 binding intensity (PBM fluorescence), RUNX1 alone (arbitrary fluorescence units); higher = stronger binding
# Details: RUNX1 concentration 2 nM; ETS1 concentration 0 nM
# Experimental: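 gcPBM on 36-bp genomic-derived probes (partner site mutated) containing one RUNX1 site and no ETS1 site. Recombinant human RUNX1 (2 nM) was incubated alone or with ETS1 (25 nM) and detected by anti-RUNX1 antibody fluorescence. Values are medians over 4 replicate spots (not normalised). The probes sit in constant array flanks that are not printed.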
# 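Also: Full-length recombinant human RUNX1 bound to double-stranded DNA microarray spots, detected with an Alexa488-labelled secondary antibody after the anti-RUNX1 primary, read as scanned spot fluorescence.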
# Chain of UniProt Q01196 (Q01196 whole entry): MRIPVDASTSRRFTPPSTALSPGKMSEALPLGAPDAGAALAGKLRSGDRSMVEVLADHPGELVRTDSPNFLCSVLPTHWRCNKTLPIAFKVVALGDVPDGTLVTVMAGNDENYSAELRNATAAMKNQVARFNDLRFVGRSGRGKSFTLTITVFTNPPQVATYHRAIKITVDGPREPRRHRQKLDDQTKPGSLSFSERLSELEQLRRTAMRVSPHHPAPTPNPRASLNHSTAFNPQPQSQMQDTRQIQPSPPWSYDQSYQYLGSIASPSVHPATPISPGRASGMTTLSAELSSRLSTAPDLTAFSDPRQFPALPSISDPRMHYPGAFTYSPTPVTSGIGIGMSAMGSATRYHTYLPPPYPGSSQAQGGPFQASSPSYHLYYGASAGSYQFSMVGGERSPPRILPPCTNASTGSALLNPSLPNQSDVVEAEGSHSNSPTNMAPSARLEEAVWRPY
row,Sequence,RUNX1 binding intensity
1,AGAAGCTGCGGCCGCCCCCGATTCCTCTCTTCCTCC,1020
2,GGCGGGGCGCGGCCGCAGCTCCGTTTCAGGTGGCTC,760
3,GGGGTCCGCGGTGGCTGCCGCATTCGGTTTAGGGGC,711
4,TATCAGGCAGGCTGCCTTCAAGACCGCTGTTTTTGC,722
5,TCTACATACCACACATGTGAACCTCCGCCCCGCCAC,1160 ± 82
6,CGTTTACTGTCTGGGACTGCGCCCACGCGGTCACGT,871
7,GGGCAGCATCGTGTGCCTGCTTCTCTTACCCACATC,817
8,TGCTTGCCGTCCGTGTCGCGGCCCTGCGGTTGGCGG,902
9,TGAGCCCTACTTTCGGTGGTGCTGTGGTCTGCCCCT,794
10,TGGGCAGCAAGTGGTATCTGATTGTGGTTTTGATTT,1840
11,TGCGTGGTTGTCCCAGGCAGTCCCCTGAAAGCAAGG,697
12,CATAGTGGATCTGCGGGTTAGAGGAGATAGGCTGCA,994
13,CGGAGGCGGCCGGGAGTAGCGCTGCGGTTGGCAGCT,921
14,CCCAGGGCTGTGGGCTCCTGAGCCAGGCAATGGGTC,676
15,GAAGGAGCTAACCACGGACCGGAGACCCCCGAGGTG,832
16,TCCCGCTGCGGCCAACAGCCGGGCCACTTTCGGGGC,822
17,GTTTGGGGATTTGTGGTGTCAGGAATCACTTAAGAT,935
18,GGCGGGAGAGGAGGCCGGGCGGCCGCAGCTGCCTGT,669
19,ATTACAGGCAGTATGTCCTCCTCTGCCTAACCACTG,928
20,CACCCTCACGGAGACAGCTGTGTGTAACCACCTCCA,952
21,ACCGGAGTGTGGTGGTAAACCTTTTCCAGCCTTCCA,791
22,AAAACAAGGACTTTCGCCTCCCTGCGGTCCCTCCCC,930
23,CAGGGAGCGGGCTGAACCTTTCTACCGCGTCTCTAG,734
24,GGAACAGAAAGCGGCAGAAATAGCAGCCACCGCGGC,760
25,CCTGCTGCTTCGGCCCGGAGTTGTTGTGGGCTCCAG,763

row,Sequence,RUNX1 binding intensity
1,CTAGCCTGTGGTTTTTCTGAGAATGCAGGCTATGTA,2680
2,GATATGGCAGGCAGTAGGGCCTGGAAACCGCACGGC,944 ± 26
3,ATGCCTGTGGTCCCAGCTACACATGAAGCTGAGGTG,763
4,TTACTTCTCATGAAGCGCTGTGGGGCTGGGGTTGCT,757
5,CAGACACGATGACAGCTGGCTGGCCCGCAGCACCTC,796
6,GACAACCTACCACAGCCTTCCTTTCGGGCGCTCAGG,1040
7,GCTGAGTGCGGGTGGCCTGGGCCGAAGGCTCAGCGG,724
8,GCTCCGCTTACGGGAGGCGGGGCTTCTGCGGGTTCC,698
9,GCACACCACAAAGCCCTATTAAGACATGAAGCCAGA,1130
10,CCTGTGGTTGCAAAGATGCTCTAACAGCAAGTGGGT,816
11,GAAGCGATATGTCCTCCTGGGGTTGACCGCCCCGTG,796
12,ACAGTGTGGTTGTGTTTTCTGTGCATCACCTCCCTG,884
13,GTGGCGAAAGTGCAGATGCGAAACCGCTGGCTCGGC,751
14,GGTTGGTTTGACCACGCCAGTTCGGCCTTCGCCTGC,795
15,CTTTGCTGCAGCATGTTCTAACCACAAGCCCAGGAG,2100
16,CTGCTTACGGCCCCGGGGTTCGCTACCCCACAATCC,926
17,GCCACCGTATTTGCGCGTTTTTCGCGGTAGGCGGGA,781
18,GAATCTGATGCAACCGCCGCCCCGGGAGTCGCGCCC,731
19,CGGGTTGGGCAGGGAGCAGCATGACCGCAGTGGGTC,916
20,GGACTGCCTGAAGCCAGATCGGTTTACCACAGTCAG,777
21,GATACTCTTTCTGTCATCCCATCCCCACAGCCTTAG,1470
22,CTGCCGCTTGCTGGGCTGAGTCCGCCCGCGGTCCCG,696
23,CAGGGATTCAGGCTGAGTGCGGCCCCCGCAGCCTCC,795
24,CCCAGATCCCGTGAGTCACCAGGTCCCACAAACCCT,921
25,CGCCTTGCGCCATCTTCTTCCACTAGCGGTAGGGGA,848

row,Sequence,RUNX1 binding intensity
1,CACCCTTCAGGCGGTGGCGGGCCTCGGTAACCGCCC,834
2,CCCGCCACCACAGAAGAGCCAATCGGCAGCTCTGGG,911
3,AGCCACGGACTTTCGCCTACAGGTCGCCGCAGGTCC,743 ± 40
4,AGCGCCTTACCCGCGGCACACCCATTTGCTGACCCC,1120
5,CCACCACGAGTGGTTTCTGACCTCTTCATGCCACTG,1040
6,TCCAGCGGTAATAATCACACACACCTCCTCTTAATC,1070
7,GCCGGCGGCCGAAAGTCTATCCCGCAGAAGCGCAGC,804
8,CCCAGGCTCCCGGGTTGAATATGTGGGCTGAGGCGA,734
9,ACAATAACAGGCAGTGGTGGGGACTGCGGTGACCTG,814
10,GGCCGGGGACCGAAGGCGGGCCCGCAGCAGATCCTG,700
11,CCGCCACGGCCGCAGCCATCTCCACCGTAAGAATGG,906
12,CAGTTTGCGGCACTGTTGTCATTCCCGGGGTAAGAT,775
13,CCTGACCTCTGTGGGAACACACAGGCAGTGGTTCAT,858
14,GAACCTTGGCGCGGTGACGCTAGTTTTCGGCGGGCT,709
15,CCCGGCAGCTGATAGCGCCTGCGGGTCGCAGCAAAT,705
16,TCTCCCTGAACTGCTCCTTCACCATGATGACCGCTG,969
17,GAAGTGGGTTAAGGAGCTGCACTGCTCCCTGCCCCC,820
18,GGACGCATGAAGGGGTGGAGTCACCACAGGAGGTAG,788
19,AACCCGGGAGTGGACACGGAGCTCGGCTGCGGCTCC,666
20,GCCGTCACCTCCGTCATTCAAACCGCCCGCCAATGG,1290
21,GAGGCCCAGGGTGTGGCTGGAGGCCTGTGGTGGGAC,720
22,AACGTCCTCATTTCTCCAACTGTCCAGCCACAGAAA,1580
23,CTGAAGAGGACATGTATTCCTCATGTTGTGGTTGGC,732
24,AGCTTGCGCTGGAAGTCTGCGGCAGGAGGGCGTCCT,714
25,TCTCAAACGAAGGGAAAGCTTGGCCCGCAGCACCCA,735

row,Sequence,RUNX1 binding intensity
1,TCCCAGGAACCACAGTGGGACAGCAAGTGACAGCCA,836
2,GCCAACAGTGGTTTCGCCCCGCTCCCTGCGCCCCGC,941
3,TGACATGGCTTCGGCCTTGGGCTTTGTGGTCTCCCA,835
4,AGGCCCGAATACCCGCCCCCAAAACCGCGTCCACAA,1060
5,AAGTGAGGCGGTTACCTCGGCGCCTTTTCCAGCAGC,711
6,GACCGGACTCCCGGCTGGTCTGTGGGGTTTCGGGTT,1350
7,CTGTTGTGGTTGCTGCGACAATGCTCCAGCAAGGGT,1580
8,AAAGGGAGGTTGGCGGGAGTTCAAAACCACCGGGGC,781
9,AGGACTGTGGGTTAGCTGCTCTGGGAGGTGGCTGGG,767
10,TCTGAGCTCCCCACAGCACCGGCACTGGGTTTAGCT,698
11,GGTACTTGCGGCTGAGCCAGCTGAAGAACGCCGGGA,757
12,ACACTGGGACGTGCCATGGCCAGCGGTTTCTTGCAA,759
13,CGGGCACGTCCTACCGCAGCAACGTGCGCCGCGCCG,911
14,CGGGGTTGCCTGGTGGCTGCGAGCGGTGGGGACGGC,757
15,CAACAAGAGGAGATCAGAAACACTGAAGCCACAGCT,733
16,CGAGCTCGGTGTGCCGCTTTTTGTGGGCCGGGTGGG,784
17,GGCATCCCCTTGCGGCCATCACTTTCTATGCCCTCA,1250
18,AAGAGCAACATTGCCGCAGCACTTCAGGGACGTCGT,690
19,CCGGCGGCCCGCAGTGCATGCCGGCAAACGTAGTTC,710
20,TCCCAGCAACCACCTCAGCTGGCGCGCGGAGAACCC,834
21,GCCTTACTGCCGCAAACGTCAATTCCTTCGGCCGCT,1150
22,CATGTGAACAGGGACCACAGACTTCCAACCTAAGAC,835
23,CTTCTAGGCAATGTAGTTCCTGGGCCCACAGCCGGG,741
24,ACCTCACCCACATAGTGTTAAGAAAGCGTTTCGTGC,893
25,GCGGCGCGTGCGGGGGAGGAGACGGTTCCAGGGGAC,819

row,Sequence,RUNX1 binding intensity
1,CAGAACGGTCCCTGGAACACTGCGGTTCCCGCCTGG,874
2,CATTCATGTGGCTTATAGGCACACCCTGCCTGCCTA,824
3,CAACGCTTGCCGACCGCCAGCAGGAGGTGGTGGGCG,755
4,AGCGACCGCTGCCGCTGCCGTGGATGGAGACGCTGC,677
5,TTCTGACTCACCTGCCTGTAGGTTGGTTTTCTGCAT,770
6,GGAGAAATAGACCGCGCTTTGTGCGGAGGCTGTCAG,733
7,CCGAGTGGCGGTTGTTTCAAGATGGCGGAGGTGGCA,789.5 ± 6.2
8,ATGCAGAAAACCAACCTACAGGCAGGTGAGTCAGAA,675
9,GACTCCAGTTCCCGTCGGCTCGCGGTGGGAGCGCCG,875
10,GCGCCCCGCTTACGGGGCCGCCCTAAACCGCGGCCG,1390
11,TCTTTGTGGTGGAGGTGGCAGGTCTTTCTTCAGCTG,1080
12,GCGCAAGCAGCAAGCGTTTGCGGTGATCCCGGCGAC,805
13,GCGGGCGAAAGTGCCGAGGTTGTACCGCGGCGCTGG,664
14,TTTCTGTGGCTGGACAGTTGGAGAAATGAGGACGTT,748
15,AACCCAGAGCTACCACACAGCACAGCATGCAGACAA,1040
16,AGCTGTTCCACCACGCTCGGCGTGGGCCGCGGTGGG,805
17,TGCCTGCGGCCTGGGCTGGGTGTAGCCCCTGAACCT,710
18,TACACACCACAAACTCCTCACAGCCTCACTTGCTGT,1530
19,TTTGATTGCCTGTCTCCATGTTGTGGTCAAGATTGC,1080
20,CCCAGAGGCAGCCCCATGCCAAGACCGCCAACGCCA,863
21,GCGGAGGCGGCAGTCGTGCTGCTGCTGACCACGGCT,676
22,GAGCCACCTGAAACGGAGCTGCGGCCGCGCCCCGCC,815
23,GCTTACGTCACGTTCGGCGCCTGCGGCCCACCCCTC,919
24,CAGGTGTCTGTGGCTGGGAGGAGACCCAGAGTCAGG,718
25,TGAAGGCAATTGACGAACACGTGACGCGGTCGGGCG,721
